Among all 420,000 compounds or so, about 50,000 (12%) were called active. The inconclusive results got no clear call from the source; some entries with a clear call stand among them for comparison. Calls come from the whole dose curve; as a rule, active = well fitted inhibition curve with a large enough effect; inconclusive = small, poorly fitted or top-dose-only effect; inactive = flat fitted curve, though single readings scatter. No potency is given beside an inconclusive call; the fits are too rough.
Test: qHTS for Inhibitors of human tyrosyl-DNA phosphodiesterase 1 (TDP1): qHTS in cells in presence of CPT; note: nearly all actives have a fitted effect of over 55% in size
Settings: chicken DT40 Tdp1-/-;hTDP1 cells + 20 nM CPT, ATP luminescence, 48 h; activity change, negative = growth inhibition: at 46.2 µM (top of the series) unless noted
How it was run: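 Chicken DT40 Tdp1-/- cells stably complemented with human TDP1 were seeded at 400 cells/well in medium containing 20 nM camptothecin, exposed to pin-transferred compounds, and grown at 37 °C for at least 48 hr. Viability was read as ATP luminescence.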
% is set by controls: 0 for no effect and ±100 for the full control effect; potency is the fitted concentration of half-maximal effect; tags give direction and shape of the fitted curve.

| SMILES | Potency | activity change, negative = growth inhibition |
| --- | --- | --- |
| COc1ccc(OC)c(-c2nnc3n(Cc4ccc(C)cc4)c(=O)c4ccccc4n23)c1 | active: 10.3 µM | – |
| N#CCC(=O)Nc1nc(-c2ccc3c(c2)OCCO3)cs1 | inactive | – |
| NC(=O)CC(NC(=O)Cc1cccc2ccccc12)c1ccc(NC2CCN(Cc3ccccc3)CC2)c([N+](=O)[O-])c1 (configuration not stated) | inconclusive [inhibitor, single point] | – |
| S=C(N/N=C/c1ccc(Cl)c(Cl)c1)Nc1ccccc1Cl | active: 23.1 µM | – |
| COC(=O)c1ccccc1NC(=O)CSc1nc2ccsc2c(=O)n1CCC(C)C | inactive | – |
| CC1C(=O)N(Cc2cn(CC3CCCCC3)nn2)CCS(=O)(=O)N1Cc1ccc(-c2ccc(Cl)cc2)cc1 (configuration not stated) | active: 16.4 µM | – |
| O=C(O)C1Oc2ccccc2C1c1ccccc1 (configuration not stated) | inactive | – |
| COc1ccc(NS(=O)(=O)c2ccc(OC)c(N(C)S(=O)(=O)c3ccc(Cl)cc3)c2)cc1 | active: 10.3 µM | – |
| COc1ccccc1N1CCN(S(=O)(=O)c2cc(Br)cnc2N)CC1 | inconclusive [inhibitor, single point] | – |
| C[C@@H]1CN([C@H](C)CO)S(=O)(=O)c2ccc(C#CCN(C)C)cc2O[C@@H]1CN(C)Cc1ccccc1F | inconclusive [inhibitor, single point] | – |
| Cc1ccc(CC(C)(O)CC(C)(O)Cc2ccc(C)cc2)cc1 (configuration not stated) | active: 20.6 µM | – |
| CCC(Cc1ccccc1)NC(=O)Cn1cccc1C(=O)c1ccccc1 (configuration not stated) | inconclusive [inhibitor, partial curve] | – |
| COc1ccc(Cc2nc3ccccc3[nH]c2=O)cc1 | inactive | – |
| COc1ccccc1NS(=O)(=O)c1cc(NC(=O)CCC(=O)c2cccs2)ccc1Cl | inconclusive [inhibitor, partial curve] | – |
| Cc1ccccc1NC(=O)C1CCN(c2cc(-c3ccccc3)nc3ncnn23)CC1 | active: 14.6 µM | – |
| CCCc1[nH]n(-c2ccc([N+](=O)[O-])cc2)c(=O)c1C=NCCc1c[nH]c2ccccc12 | inconclusive [inhibitor, single point] | – |
| O=C(CN(C(=O)c1csnn1)c1cccc(Cl)c1)NCCc1ccccc1 | inactive | – |
| CC1(C)CC(=O)C(/C=N/c2ncccc2C(=O)O)=C(O)C1 | inactive | – |
| COc1ccc(C(=O)Nc2ccc3nc(C)sc3c2)cc1S(=O)(=O)N1CCOCC1 | inconclusive [inhibitor, partial curve] | – |
| O=C1N[C@H](Cc2ccccc2)COC(=O)[C@@H](Cc2ccc(F)cc2)CC/C=C/C[C@H]1CC(=O)N(CCO)Cc1ccccc1 | active: 18.4 µM | – |
| O=C(O)CCSc1ccc([N+](=O)[O-])cc1[N+](=O)[O-] | inconclusive [inhibitor, partial curve, poor fit] | – |
| O=C1c2ccccc2C(=O)c2c1cccc2N1CCOCC1 | inconclusive [inhibitor, single point] | – |
| O=C(COc1ccccc1)Nc1nnc(-c2ccc3c(c2)CCCC3)o1 | inactive | – |
| COc1cccc(NC(=O)CN(C)C(=O)c2cccc(NS(=O)(=O)c3ccc(Br)cc3)c2)c1 | inconclusive [inhibitor, single point] | – |

| SMILES | Potency | activity change, negative = growth inhibition |
| --- | --- | --- |
| CS(=O)(=O)c1cnc(-c2ccccc2)nc1-c1ccccc1Cl | inactive | – |
| Cc1ccc(-n2c(CC#N)n[nH]c2=S)c(C)c1 | inactive | – |
| COc1ccc(S(=O)(=O)N2CCCN(S(=O)(=O)c3ccc(OC)cc3C)CC2)c(C)c1 | active: 23.1 µM | – |
| Cc1cccc(Cn2c(CNS(=O)(=O)c3ccc4c(c3)CCCC4)nc3cccnc32)c1 | inconclusive [inhibitor, single point] | – |
| COc1ccc(C(C)NC(=S)NCc2ccc(F)cc2)cc1OC (configuration not stated) | inactive | – |
| Cc1cc(=O)n2nc(N3CCCC(C(=O)Nc4ccc(C)c(C)c4)C3)sc2n1 (configuration not stated) | inconclusive [inhibitor, single point] | – |
| CCc1ccc(C2c3[nH]c4ccccc4c3CCN2C(=O)c2cc(C)nn2C)cc1 (configuration not stated) | inconclusive [inhibitor, single point] | – |
| Cc1c(-c2cccc(Cl)c2)nc2ccccc2c1C(=O)OCC(=O)Nc1ccc2c(c1)OCO2 | inconclusive [inhibitor, single point] | – |
| COC(=O)c1ccc(OCC2c3cc(OC)c(OC)cc3CCN2C(=O)COc2ccc(Cl)cc2)cc1 (configuration not stated) | active: 20.6 µM | – |
| O=C(c1ccccc1Cl)N1c2ncnn2C2(CCCCC2)[C@@H]2CCCC[C@@H]21 | inactive | – |
| CCn1cc(/C=C/C(=O)Nc2ccn(Cc3c(F)c(F)c(F)c(F)c3F)n2)cn1 | inconclusive [inhibitor, single point] | – |
| S=C(NCCN1CCOCC1)Nc1cccc(Cl)c1 | inactive | – |
| NC(=O)c1ccc(N2CCN(c3ccc(O)cc3)CC2)c([N+](=O)[O-])c1 | inconclusive [inhibitor, partial curve, poor fit] | – |
| CCCCNS(=O)(=O)c1ccc(NC(=O)c2cccs2)cc1 | inconclusive [inhibitor, single point] | – |
| CC(=O)NC(Cc1ccc(C)cc1)C(=O)NC1CCN(C(=O)c2cnccn2)CC1 (configuration not stated) | inactive | – |
| COc1ccc(F)cc1S(=O)(=O)NCCc1csc2nc(-c3cccc(C)c3)nn12 | inconclusive [inhibitor, single point] | – |
| CCNC(=O)C1(C)CCCN(C(=O)C2(c3ccc(Cl)cc3)CCCC2)C1 (configuration not stated) | inconclusive [inhibitor, single point] | – |
| O=[N+]([O-])c1cc(Cl)ccc1N1CCOCC1 | inactive | – |
| O=[N+]([O-])c1cccc(P(=O)(O)c2cccc([N+](=O)[O-])c2)c1 | inactive | – |
| CN(CC1CCCO1)S(=O)(=O)c1ccc(C(=O)Nc2ccc3c(c2)OCO3)cc1 (configuration not stated) | inconclusive [inhibitor, single point] | – |
| CCCN(CC(=O)Nc1ccc(C(C)=O)cc1)CC(=O)Nc1ccccc1C | – | inconclusive: -31.7% [inhibitor] |
| Cc1cc(=O)oc2cc(OCC(=O)N3CCN(c4ccc(F)cc4)CC3)c(Cl)cc12 | inactive | – |
| C[C@@](N)(C(=O)O)[C@@H]1C[C@@H]1C(=O)O | inactive | – |
| CN(C1=NC(=O)C(CC(=O)Nc2ccc(Br)cc2)S1)c1ccc(O)cc1 (configuration not stated) | inconclusive [inhibitor, single point] | – |

| SMILES | Potency | activity change, negative = growth inhibition |
| --- | --- | --- |
| Cc1cc2c(cc1C)NC(=O)CC(c1ccccc1)=N2 | inconclusive [inhibitor, single point] | – |
| O=C1CS/C(=N/N=C\c2ccn[nH]2)N1 | inactive | – |
| CSc1ccc(C2NC(=O)c3c(sc4c3CCN(C)C4)N2)cc1 (configuration not stated) | inconclusive [inhibitor, single point] | – |
| Cc1c(Cl)cccc1NC(=S)N1CCOCC1 | inactive | – |
| CCOC(=O)N1CCN(C(=O)c2ccc3c(=O)n(CCC4=CCCCC4)c(=O)[nH]c3c2)CC1 | active: 16.4 µM | – |
| CCCCNC(=O)C(C)N(CCN(C)C)C(=O)CCCN1C(=O)NC(c2ccc(Cl)cc2)C(C(=O)OCc2ccccc2)=C1C (configuration not stated) | active: 20.6 µM | – |
| O=C1c2ccccc2C(=O)N1CCc1csc(-c2cccc(F)c2)n1 | inactive | – |
| CCOC(=S)SCC(=O)N1CCc2cc(OC)ccc2C1C1C(=O)CCCC1=O (configuration not stated) | inconclusive [inhibitor, single point] | – |
| CC(=O)c1ccc(OCC(O)COc2ccc(C(C)=O)cc2)cc1 | inactive | – |
| CCOC(=O)C1CCN(C(=O)c2cccc(C(=O)N3CCC(C(=O)OCC)CC3)c2)CC1 | – | inconclusive: -31.6% [inhibitor] |
| CCOC(=O)C1=C2c3ccc4ccccc4c3CC(C)(C)N2C(=O)C1=O | inconclusive [inhibitor, partial curve, poor fit] | – |
| Cc1cc(C)nc(N/N=C/c2sccc2C)n1 | inconclusive [inhibitor, single point] | – |
| Fc1ccc(CNc2ccccn2)cc1 | inconclusive [inhibitor, partial curve] | – |
| CC(=O)c1nn(-c2ccccc2)cc1C(=O)c1ccc(C)cc1 | inconclusive [inhibitor, single point] | – |
| C=CCN1C(=O)N/C(=C/c2ccccc2OCC(=O)Nc2ccc(F)cc2)C1=O | inconclusive [inhibitor, single point] | – |
| COc1cc2sc(-c3ccc(S(C)(=O)=O)cc3)c(C(=O)NCc3ccc(C)o3)c2cc1OC | inconclusive [inhibitor, single point] | – |
| Nc1nc(Nc2ccccc2F)sc1C(=O)c1ccc(Cl)cc1 | inconclusive [inhibitor, single point] | – |
| CCc1cccc(NC(=O)C2CCN(C(=O)c3cnn(-c4ccccc4)c3-n3cccc3)CC2)c1 | active: 20.6 µM | – |
| COc1ccc(N2CCN(C(=O)CCS(=O)(=O)c3ccc4c(c3)NC(=O)C(C)S4)CC2)cc1 (configuration not stated) | inconclusive [inhibitor, single point] | – |
| COc1cc(Cl)c(C)cc1NC(=O)CSc1nnc(-c2ccco2)n1CC(C)C | inconclusive [inhibitor, single point] | – |
| COc1ccc(NC(=O)c2ccc(NC(=O)C(C)C)cc2)c([N+](=O)[O-])c1 | inactive | – |
| Clc1ccc(/C(Cc2nc3ccccc3[nH]2)=N\Nc2ccccc2)cc1 | inconclusive [inhibitor, single point] | – |
| CCOC(=O)C1CCCN(C(=O)c2nn(-c3ccc(OC)cc3)c(=O)c3c2c2ccccc2n3C)C1 (configuration not stated) | inactive | – |
| CCc1ccc([C@H]2[C@@H]3C(=O)C[C@@H]4C(=O)NC(=O)[C@@H]4[C@@H]3CN2S(=O)(=O)c2ccc(C)cc2)cc1 | inactive | – |
